Tests used:
[1] = target: human EGFR-GST (human) (UniProt P00533); experiment: SPR (Biacore T100), KD for human EGFR-GST divided by KD for monkey EGFR-GST
[2] = target: human EGFR-GST (human) (UniProt P00533); experiment: SPR (Biacore T100), bispecific captured via anti-human IgG, antigen as analyte, single cycle kinetics
[3] = target: monkey EGFR-GST (monkey) (UniProt P55245); experiment: as above

B1: E08-TfR1071 (bispecific antibody, part only; not given: light constant region, not shown: another chain or arm of the molecule)
heavy: EVQLVESGGGLVQPGGSLRLSCAASGFSFNNNAMNWVRQAPGKGLEWVSGIRADGGTTYYADSVKGRFTISRDNSKNTLYLQMNSLRAEDTAVYFCGKTPDWEIFYYAMDAWGQGTTVTVSSASTKGPSVFPLAPCSRSTSESTAALGCLVKDYFPEPVTVSWNSGALTSGVHTFPAVLQSSGLYSLSSVVTVPSSSLGTKTYTCNVDHKPSNTKVDKRVYVQLVESGGGLVQPGGSLRLSCAASGFSFDKYTMNWVRQAPGKGLEWVSVISNGGVSTDYADSVKGRFTVSRDNSKNTLYLQMNSLRAEDMATYYCARASQPWLYRTGADVWGQGTLVTVSSASTKGPSVFPLAPCSRSTSESTAALGCLVKDYFPEPVTVSWNSGALTSGVHTFPAVLQSSGLYSLSSVVTVPSSSLGTKTYTCNVDHKPSNTKVDKRV[left out - human IgG4 Fc with S228P L235E R409K (EU numbers)]
VL: [left out - about 100 residues]
- Human EGFR [nM]/Monkey EGFR [nM] (KD ratio) [1]: 0.87
- Kd [2]: 0.13 nM
- Kd [3]: 0.15 nM
